In patent US20150209319A1, “COMPOSITIONS COMPRISING AN ANTIBODY AND CAMOSTAT MESYLATE (CM)” (Glaxo Group Limited, priority 2012, published 2015):

Key:
IL-6 = assay: ELISA binding of intact mAb from SIF incubations to coated ligand IL-6
Procedure: (§1) Monoclonal antibodies were incubated in SIF in the presence and absence of CM as in Examples 1 and 2, and ability to bind to their ligand was assessed using an ELISA. In brief, Nunc Maxisorp™ plates were coated with ligand (in this Example, IL-6 and IL-23) overnight. Plates were washed and blocked with bovine serum albumin. SIF samples were diluted and added to the plate, along with a standard curve of mAb, then incubated at room temperature to allow binding. Plates were washed and a peroxidase-conjugated anti-human Fc region antibody was added to the wells. After incubation, the plate was washed and incubated with OPD substrate to obtain a colorimetric signal. The reaction was stopped with sulphuric acid and absorbance read at 490 nm.

IL-23 = assay: ELISA binding of intact mAb from SIF incubations to coated ligand IL-23
Procedure: as §1

[1] = SIF alone, by 1 hour, relative to 0 h time-point = 100%

Row | intact bound mAb lost (anti-IL6 binding ELISA) (IL-6; [1]) | intact bound mAb lost (anti-IL23 binding ELISA) (IL-23; [1]) | Molecule | bound intact mAb detectable (anti-IL6 binding ELISA) (IL-6; SIF with CM, at 21 h) | bound intact mAb detectable (anti-IL23 binding ELISA) (IL-23; SIF with CM, at 21 h)
1 | over 90% |  | anti-IL6: an anti-IL-6 antibody (SEQ ID NOs: 1 and 2) (antibody, Amino acid sequence identified using molecular biology techniques.) heavy: QVQLQESGPGLVKPSETLSLTCTVSGFSLSTSGMGVGWIRQPPGKGLEWIGHIWWDDDKYYNPSLKSRVTISVDTSKNQFSLKLSSVTAADTAVYYCARSYDDYLYYALDYWGQGTLVTVSS[gap - human IgG1 constant region with L235A G237A (EU numbers)] light: DIQMTQSPSSLSASVGDRVTITCRASQSISDYLHWYQQKPGKAPKLLIKSVSQSISGVPSRFSGSGSGTDFTLTISSLQPEDFATYYCQNGHSFPLTFGQGTKLEIKRTVAAPSVFIFPPSDEQLKSGTASVVCLLNNFYPREAKVQWKVDNALQSGNSQESVTEQDSKDSTYSLSSTLTLSKADYEKHKVYACEVTHQGLSSPVTKSFNRGEC | substantial amounts were still detectable | 
2 |  | over 90% | anti-IL23: an anti-IL-23 antibody (SEQ ID NOs: 3 and 4) (antibody, Amino acid sequence identified using molecular biology techniques.) heavy: QVQLVQSGAEVKKPGSSVKVSCKASGYTFTSYGITWVRQAPGQGLEWMGENYPRSGNIYYNEKFKGRVTITADKSTSTAYMELSSLRSEDTAVYYCARAEFISTVVAPYYYALDYWGQGTLVTVSS[gap - human IgG1 constant region] light: DIVMTQSPDSLAVSLGERATINCKASKKVTIFGSTSALHWYQQKPGQPPKLIYNLAKPESGVPDRFSGSGSGTDFTLTISSLQAEDVAVYYCLQNKEVPYTFGGGTKVEIKRTVAAPSVFIFPPSDEQLKSGTASVVCLLNNFYPREAKVQWKVDNALQSGNSQESVTEQDSKDSTYSLSSTLTLSKADYEKHKVYACEVTHQGLSSPVTKSFNRGEC |  | substantial amounts were still detectable
